Assay results as given in paper PMC4336329 (PLoS ONE, 2015).
Screen size: about 310,000 compounds; about 2,200 (0.71%) showed an effect of 50% or more. Effects have a minus sign here. This is one part of the list.

Molecular target: human ether-à-go-go-related gene (hERG) potassium channel (human, UniProt Q12809)
Experiment: primary screen, population patch clamp on CHO cells stably expressing hERG

human ether-à-go-go-related gene (hERG) potassium channel, sequence (Q12809 whole entry, looked up): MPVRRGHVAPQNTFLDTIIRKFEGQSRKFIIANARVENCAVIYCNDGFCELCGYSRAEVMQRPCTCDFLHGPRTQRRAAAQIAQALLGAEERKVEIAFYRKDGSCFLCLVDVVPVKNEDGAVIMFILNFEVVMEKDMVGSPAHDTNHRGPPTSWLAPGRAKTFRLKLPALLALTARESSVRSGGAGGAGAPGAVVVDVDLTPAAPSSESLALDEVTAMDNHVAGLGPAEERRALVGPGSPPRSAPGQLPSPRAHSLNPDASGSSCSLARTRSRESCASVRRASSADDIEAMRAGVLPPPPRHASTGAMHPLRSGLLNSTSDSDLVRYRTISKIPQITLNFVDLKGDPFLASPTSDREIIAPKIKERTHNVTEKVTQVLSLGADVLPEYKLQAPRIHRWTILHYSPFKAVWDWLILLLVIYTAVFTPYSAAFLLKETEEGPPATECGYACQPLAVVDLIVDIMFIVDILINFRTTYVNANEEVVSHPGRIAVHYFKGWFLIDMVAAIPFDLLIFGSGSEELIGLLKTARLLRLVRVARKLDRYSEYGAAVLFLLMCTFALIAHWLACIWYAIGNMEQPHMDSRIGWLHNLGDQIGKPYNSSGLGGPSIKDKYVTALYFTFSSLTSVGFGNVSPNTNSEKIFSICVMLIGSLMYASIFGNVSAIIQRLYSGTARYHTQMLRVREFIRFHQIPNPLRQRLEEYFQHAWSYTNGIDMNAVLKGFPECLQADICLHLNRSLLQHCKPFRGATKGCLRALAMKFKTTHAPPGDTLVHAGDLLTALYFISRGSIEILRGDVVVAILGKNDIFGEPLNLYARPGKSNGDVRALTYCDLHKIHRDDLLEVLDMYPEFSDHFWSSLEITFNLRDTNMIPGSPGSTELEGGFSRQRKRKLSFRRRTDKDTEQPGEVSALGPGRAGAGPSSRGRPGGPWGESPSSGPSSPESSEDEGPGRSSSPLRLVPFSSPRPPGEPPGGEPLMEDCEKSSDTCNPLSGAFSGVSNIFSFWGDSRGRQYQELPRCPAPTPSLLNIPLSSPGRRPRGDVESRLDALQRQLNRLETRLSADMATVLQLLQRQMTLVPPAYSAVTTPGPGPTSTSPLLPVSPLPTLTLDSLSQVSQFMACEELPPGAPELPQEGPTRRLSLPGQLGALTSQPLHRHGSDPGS

Structure (SMILES) | hERG current change (%, negative = inhibition) at 1uM
CC(=O)Nc1ccc(C(=O)N/N=C/c2ccccc2OC(=O)c2ccc(Cl)cc2)cc1 | 12.2%
C[C@@H](CSc1ccccc1)CN1CC[C@H](C(C)(C)C)CCC1=O | 9.29%
Cc1ccc(C(=O)N2CC=C(c3ccccc3)CC2)o1 | 6.79%
CC(C)Oc1cc(NC(=O)CS(=O)CC(=O)Nc2cccc(C(F)(F)F)c2)c(Cl)cc1Cl (stereo not shown) | 11.6%
CN(C1CCCCC1)S(=O)(=O)c1ccc(S(=O)(=O)N2CCN(C(=O)c3ccccc3F)CC2)cc1 | 14.3%
CCn1c(SCC(=O)N/N=C\c2ccccc2OCC(=O)O)nnc1-c1ccc(Cl)cc1 | 9.15%
Cc1ccc(S(=O)(=O)NCC(=O)OCC(=O)NC(=O)NC2CCCC2)cc1 | 12.8%
O=C(NCc1ccco1)/C(=C/c1ccc(F)cc1)NC(=O)c1ccccc1 | 10.2%
Cc1cc(OCC(=O)O/N=C(\N)c2ccccc2)ccc1Cl | 6.38%
Cn1nc(C(F)(F)F)c(/C=N/OC(=O)c2ccccc2)c1Cl | 4.14%
CN(C)S(=O)(=O)c1cc(NC(=O)CN2CCN(c3ccccc3F)CC2)ccc1Cl | 10.6%
N#Cc1cc(Br)ccc1N=C1CCCN1c1ccccc1 | -4.78%
CS(=O)(=O)c1cccc(-c2csc(N3CCC(C(N)=O)CC3)n2)c1.O=C(O)C(F)(F)F | -5.93%
Cc1ccc(C(=O)NCc2ccccc2)cc1Br | 7.97%
Cc1ccc(CN2C(=O)CSc3ccc(C(=O)NC4CC4)cc32)cc1 | 9.07%
CCOC(=O)c1ccc(NC(=S)N2CCC(O)CC2)cc1 | 7.52%
c1ccc(C2N3CCCN23)cc1 (stereo not shown) | 10.4%
Fc1ccccc1CCNc1nnnn1-c1ccccc1 | 10.4%
O=C(O)Cn1c(=O)c2c3c(sc2n(Cc2ccc(Cl)cc2Cl)c1=O)CCCC3 | 6.14%
Cc1nc(C(=O)Nc2ccc(Cl)cc2)sc1C1(C)CC(c2cccc([N+](=O)[O-])c2)=NO1 (stereo not shown) | -13%
Cc1ccccc1C(=O)Oc1ccc(Br)cc1C(=S)N1CCCC1 | -2.6%
Cl.OC(COc1c(F)cc(Br)cc1F)CN1CCOCC1 (stereo not shown) | 6.67%

Structure (SMILES) | hERG current change (%, negative = inhibition) at 1uM
C/C(=N\Nc1nc2ccccc2s1)c1cccs1 | 27.1%
Cc1ccsc1CN(C)C(=O)CN1C(=O)NC2(CCCc3ccccc32)C1=O (stereo not shown) | -5.3%
COc1ccc(-n2nc(C(=O)NCC(=O)N3CCC(C)CC3)c3ccccc3c2=O)c(OC)c1 | 11.4%
COC(=O)CCNC(=O)CCc1ccc(S(=O)(=O)N2CCCCCC2)cc1 | 14.7%
CC(NC(=O)c1cccc(Br)c1)c1ccccc1 (stereo not shown) | 23.7%
COC(=O)CCCC1=CC2=CC(=O)C(C)(OC(=O)c3ccc(Cl)nc3)C(=O)C2=CO1 (stereo not shown) | 11.3%
CCc1nnc(NC(=O)CSc2ncc(-c3ccccc3)n2C)s1 | 9.75%
CSc1ccc(S(=O)(=O)NCCCOC(C)C)cc1 | 5.3%
CCC(=O)c1c(NCCc2ccccc2)cc(C)oc1=O | 18.5%
Cc1cc(C)n(-c2ncc3c(n2)N(C)CCOC3=O)n1 | 11.2%
Cc1cc(NC(=O)CN2CCN(c3ncccn3)CC2)no1.Cl | 14.7%
CC1=CC(C)C(C(=O)O)C(C(=O)O)C1 (stereo not shown) | 19.7%
O=S(=O)(c1ccccc1)n1cc(-c2ccccn2)c(N2CCOCC2)n1 | 4.59%
CC1(C)Cc2c(cnn2-c2cccc(F)c2)C(NC(=O)CN2CCCC2=O)C1 (stereo not shown) | 14.6%
Cc1ccc(N/C=C2\C(=O)C3(C)CCC2C3(C)C)cc1C (stereo not shown) | 14.4%
NC(=O)c1ccccc1NC(=O)Nc1ccc(F)c(Cl)c1 | 8.45%
Cc1ccc(S(=O)(=O)N2CCN(CC(=O)Nc3ccccc3Cl)CC2)cc1 | 8.51%
CCCOc1ccc(-c2cnc(SCC(N)=O)nc2N)cc1 | 5.14%
Cc1cccc(C(=O)N/N=C/c2ccncc2)c1 | 15.4%
CCC(OC(=O)c1ccco1)C(=O)NCc1ccc(C)cc1 (stereo not shown) | 12.9%
O=c1[nH]c2ccccc2c2nc3ccccn3c12 | -4.45%
CCC(=O)Nc1cc(C(=O)O)ccc1Sc1ccc(C)cc1 | 9.26%

Structure (SMILES) | hERG current change (%, negative = inhibition) at 1uM
CC(C)(C)OC(=O)NCCCCCNC(=O)c1[nH]cnc1C(=O)N[C@@H](CCCCNC(=O)OC(C)(C)C)C(=O)OC(C)(C)C | 14.5%
Cc1cccc2cc(C(c3nnnn3CC3CCCO3)N3CCc4ccccc4C3)c(=O)[nH]c12 (stereo not shown) | -9.37%
CC1CCCCC1NC(=O)C(Cc1ccccc1)NS(=O)(=O)c1cccs1 (stereo not shown) | 8.52%
CCOC(=O)CSc1nc2ccc(N)cc2s1 | -1.93%
CC1CCCCN1C(=O)COC(=O)c1ccc2c(c1)C(=O)N(Cc1ccco1)C2=O (stereo not shown) | -39.9%
CCOc1ccc(-n2c(O)c(C=NCCN(CC)CC)c(=O)[nH]c2=O)cc1 | 16.4%
CCSc1nnc(NC(=O)C(CC)(C(F)(F)F)C(F)(F)F)s1 | 15%
COc1ccc(-c2noc(CNC(=O)CCCN3C(=O)[C@H]4CC=CC[C@H]4C3=O)n2)cc1 | 11.7%
O=C(CN1C(=O)c2cccnc2Oc2ccc(Cl)cc21)N1CCCC1 | 13.5%
Cc1ccc2cc(C)c(N3CCC(C)CC3)nc2c1 | 9.3%
COc1ccc(OCc2cc(C(=O)NC(C)Cn3cncn3)no2)c(Cl)c1 (stereo not shown) | 11.4%
CC(C)(C)C1N=C(c2ccc3ccccc3c2)OC1=O (stereo not shown) | 13.9%
COc1ccc(C)cc1Nc1cc(C)nc2ncnn12 | 10.3%
CCOC(=O)C1CCN(C(=O)Nc2ccc3snnc3c2)CC1 | 3.17%
COc1ccc2c(c1OC)C(=O)OC2Nn1cncn1 (stereo not shown) | 6.85%
Cc1cc2cc(CCNC(=O)CC(C)(C)C)c(=O)[nH]c2cc1C | 13.3%
CCN(CC)c1ccc(C(=O)NNC(=O)CCl)cc1.Cl | 10.1%
CCCn1nnnc1NC(=O)c1ccc(C)cc1Cl | 8.63%
c1ccc([C@H]2CN3C(=N2)Sc2ccccc23)cc1 | 11%
COc1ccc(C2NC(C(=O)O)Cc3c2[nH]c2ccccc32)cc1CN1CCN(c2ccc(F)cc2)CC1 (stereo not shown) | 2.03%
COc1ccc(C(=O)COc2ccc(F)cc2)c(O)c1C | 6.69%
COc1ccc(CCC(=O)N2CCCSC2=Nc2ccc(C(C)=O)cc2)cc1 | -0.0389%

Structure (SMILES) | hERG current change (%, negative = inhibition) at 1uM
COc1ccc(CNC(=O)C2CCCN(c3nc4ccccc4o3)C2)c(OC)c1 (stereo not shown) | 0.0528%
CC1CN(C)C(C)CC1OC(=O)C(c1ccccc1)c1ccccc1 (stereo not shown) | -68.3%
Cl.OC(COCC1COc2ccccc2O1)CN1CCN(c2ccc(F)cc2)CC1 (stereo not shown) | -57.6%
CCOC(=O)c1c(C)[nH]c(C(=O)COC(=O)C2CC(=O)N(Cc3ccccc3)C2)c1C (stereo not shown) | 10.2%
COc1ccc(CCNC(=O)c2cc(-c3ccncc3)nc3c(Cl)cccc23)cc1OC | -19.5%
COc1ccc(-n2nc(C(=O)NCC(=O)NCc3ccccc3OC)c3ccccc3c2=O)c(OC)c1 | 16.7%
N#Cc1ccc(S(=O)(=O)N2CCN(CC(=O)NCC3(N4CCOCC4)CCCCC3)CC2)cc1 | 7.46%
CS(=O)(=O)c1cnc2c(S(=O)(=O)c3ccccc3)cnn2c1N | 9.68%
COc1ccc(C(=O)NCc2ccc3c(c2)OCO3)cc1S(=O)(=O)N1CCCC1 | 0.876%
CC1COC(C)(CC(=O)NN2C(=O)c3ccccc3C2=O)O1 (stereo not shown) | 12.5%
CN(C)C(=O)c1ccc(NC(=O)c2cc(-c3ccco3)nc3ccccc23)cc1 | 5.96%
O=C(CCc1ccccc1)NNC(=O)Nc1ccc(Br)cc1 | -2.97%
COc1oc(-c2ccccc2C)nc1C(F)(F)F | 11%
O=C(NC1CCCC1)C(c1c(F)cccc1Cl)N(C(=O)c1csnn1)C1CC1 (stereo not shown) | 14.1%
Cc1ccc(S(=O)(=O)N(CC(=O)Nc2ccccc2C(=O)O)c2ccc(Cl)cc2)cc1 | 11.2%
CCN1C=C(Cc2ccc(OC)cc2)C2=C(C1)C(c1ccc(OC)cc1)C(C#N)=C(N)O2 (stereo not shown) | -0.657%
CN(CC(=O)Nc1ccccc1Br)CC(=O)Nc1ccccc1-c1ccccc1 | -5.27%
O=[N+]([O-])c1ccc2nc(NS(=O)(=O)c3ccc(Cl)cc3)sc2c1 | -3.86%
COC(=O)CCCC(=O)N1CCCC(C(=O)c2ccc(-c3ccccc3)cc2)C1 (stereo not shown) | 0.652%
COCCCn1c(SCc2nc3ccccc3c(=O)[nH]2)nc2ccccc2c1=O | 3.04%
C=CCSc1nsc(NC(=O)Nc2ccc(F)cc2)n1 | 18.8%
CN(CC(=O)Nc1ccc(S(=O)(=O)N2CCCC2)cc1)Cc1cccc(Cl)c1Cl | 7.46%
